In a collection of fitness landscapes (doi:10.1016/j.celrep.2020.107928):
Over roughly 81,000 sequences, “one-hybrid fitness for binding NBS DNA” has its median near -0.1; the highest 2% begin near 0.36. This is one part of the list.

B1: Caulobacter ParB omega fusion; a variant is named by its letters at X, in order, B8GW30 (parent)
chain: MESVVVGEPGMSEGRRGLGRGLSALLGEVDAAPAQAPGEQLGGSREAPIEILQRNPDQPRRTFREEDLEDLSNSIREKGVLQPILVRPSPDTAGEYQIVAGERAWRAAQRAGLKTVPIMVRELDDLAVLEIGIIENVQRADLNVLEEALSYKVLMEKFERTQENIAQTIGKSXSHVANXMRLLXLPDEVQSYLVSGELTAXHARAIAAAADPVALAKQIIEGGLSVRETEALARKAPNLSAGKSKGGRPPRVKDTDTQALESDLSSVLGLDVSIDHRGSTGTLTITYATLEQLDDLCNRLTRGI

Variants of: B1
Assay: one-hybrid fitness for binding NBS DNA (the Noc-binding site; scaled: cognate 1, non-cognate 0); higher = stronger binding
Conditions: with NBS DNA site
Method in brief: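 Selection: bacterial one-hybrid in E. coli USO, HIS3 reporter with the site 19 bp from the promoter, 48 hours at 37°C on M9-minus-histidine plus 0.1 mM IPTG and 5 mM 3-AT. Libraries were Caulobacter ParB with four randomised specificity codons, sequenced on Illumina before and after selection. Fitness is the rescaled log change in variant-to-wild-type read ratio, anchored to the cognate and non-cognate sites.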

one-hybrid fitness for binding NBS DNA, 0.396:
RVAR

one-hybrid fitness for binding NBS DNA, 0.213:
MKKR

one-hybrid fitness for binding NBS DNA, 0.53:
RQNT

one-hybrid fitness for binding NBS DNA, 0.423:
RLAT

one-hybrid fitness for binding NBS DNA, 0.332:
QRAE

one-hybrid fitness for binding NBS DNA, 0.692:
QRKA

one-hybrid fitness for binding NBS DNA, 0.322:
QRLM

one-hybrid fitness for binding NBS DNA, 0.997:
QRSR

one-hybrid fitness for binding NBS DNA, 0.786:
QQNR

one-hybrid fitness for binding NBS DNA, 0.206:
MQRR

one-hybrid fitness for binding NBS DNA, 0.606:
QQRA

one-hybrid fitness for binding NBS DNA, 0.276:
TMRR

one-hybrid fitness for binding NBS DNA, 0.216:
QYRE

one-hybrid fitness for binding NBS DNA, 0.583:
RHRT

one-hybrid fitness for binding NBS DNA, 0.373:
CRRR

one-hybrid fitness for binding NBS DNA, 0.226:
QALS

one-hybrid fitness for binding NBS DNA, 0.714:
QQKS

one-hybrid fitness for binding NBS DNA, ≤ 0.2:
LYSS
CMHG
PIFR
LHEL
GPGA
QCTF
DMYA
RVHF
HAQR
NQDT
YSTM
QGCI
SAGI
MLIY
AATP
PTLA
KVMR
SVHG
KDTP
TRLD
HSVG
RDNV
WPPI
VCNR
VEPF
RTWV
RFAQ
DKPG
QMNK
IPTA
HWSY
QGTN
QWDG
NPKV
GFTA
FLLV
CANR
YRLY
EELC
AMKR
SFTC
TREC
RTGW
HVVA
HCAV
PTMT
LSPN
SYPK
QCIF
RICQ
SPKW
RGWD
GQPI
WEDR
LLKQ
YYKV
NVDT
PGEY
PEDV
FYIS
GDGC
TDDL
VLET
FPQT
PHNC
VDWG
TGKG
RVWI
ILPS
CHSW
GMMG
VRCA
QSFQ
DRRL
DNPI
LPIR
KARQ
WDKR
GTLV
NPHD
VRLH
RLAE
MSRV
NARF
LGHS
DPAW
STQV
PHDF
RMFK
AFVV
THNS
PNVY
RCGD
NTCD
ALDH
RKYN
WREE
RSHH
QWSF
MVKG
FAVC
DSKM
AQAE
MCDR
DSVY
HARQ
ACPM
SHKY
SRLC
NHAL
PGFP
RHRV
VTTG
DQHR
RNHT
PKYE
PGPI
TGTQ
PDVM
VTIY
NMNS
KLYP
NGYR
WQQI
GPEI
QMLI
ALQG
NRKG
SPPR
RTNM
IDNE
FSTM
NLKN
ACYC
LGVS
MFSS
AKDT
VMPH
HLGH
YKCC
LSTD
TEEN
GRQL
FRHR
KTYF
DPRR
TSGM
NRHE
APAR
PRVL
SPLS
DEFR
CGFC
SIKG
LFDG
LHRS
PNFV
HYHA
HGGC
CGRT
STES
MRPI
KQAC
RGEM
NDTF
YPTR
LDPG
DLSV
ASPP
MTRS
AEWS
LNNL
HTDF
VEDL
RAVC
IEAS
PPAW
KPQT
HWDR
PLGI
KGGR
ICMF
WNMR
GVRM
MGTC
STTH
NPLD
CHMW
AHKS
LRQG
ATRQ
ESTF
LTHG
NGQV
MECR
SETA
SYVC
AHKM
QHNC
MTKH
LLLY
ALMS
TGFC
QWAY
DILR
ASTD
ISEG
VHVC
VRPV
IGAS
IGRI
NWWC
MSQM
CLSW
KMLR
IDIS
LAGY
QCPW
VRRQ
DYFC
RALA
QSEL
CTCT
HNMA
TWLI
QVQV
IMTC
NPPC
EYPV
KWRR
WGTG
DGGN
PANG
PGKG
QPSQ
PTEP
DMLY
GFFG
THWI
HNVN
ELSE
MLSI
ATAQ
ARQN
GTDL
QDPR
IQNT
MSPI
YKAR
PLRL
FVYT
CACF
MDKS
VYAR
DPPR
GMGR
PKPE
LAST
LQNS
LEFM
IWKL
RQSW
CMQC
QSHL
KYRW
ILAR
RWLI
FTTR
PTRI
SIET
SHWT
AVKG
QKSW
GSPN
ELHS
TCQA
RHFH
KYKV
TTRK
QKAE
CRFS
HRTN
KLWM
SSTW
ALVL
RAGN

one-hybrid fitness for binding NBS DNA, 0.44:
RREA

one-hybrid fitness for binding NBS DNA, 0.223:
RRAQ

one-hybrid fitness for binding NBS DNA, 0.331:
RRTG
